From article PMC12820563, “FoxP3 forms a head-to-head dimer in vivo and stabilizes its multimerization on adjacent microsatellites” come the findings set out here.

The other results are listed elsewhere or left out.

This experiment addresses T1, MBP-FoxP1dN (Mus musculus, UniProt P58462 326-579).
T1 sequence: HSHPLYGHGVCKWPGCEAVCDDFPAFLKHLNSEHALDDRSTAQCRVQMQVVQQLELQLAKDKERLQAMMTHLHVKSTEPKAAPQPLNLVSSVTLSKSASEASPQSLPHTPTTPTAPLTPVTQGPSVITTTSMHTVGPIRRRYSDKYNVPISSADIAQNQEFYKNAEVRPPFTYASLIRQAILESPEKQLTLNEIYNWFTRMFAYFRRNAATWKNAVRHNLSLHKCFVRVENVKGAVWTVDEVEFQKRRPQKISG
The experiment is described as follows: PD-seq (MBP pull-down with sequencing); 20 mM Tris-HCl pH 7.5, 100 mM NaCl, 1.5 mM MgCl2, 0.4 uM protein, 0.1 uM dsDNA library, 30 min, room temperature, amylose pull-down; high values mean tight binding. To be noted: protein: recombinant; tags: His6-MBP; chain copies: 2; dsDNA, one strand shown. The method in brief: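 Binding is given as reads-per-million enrichment, pull-down over input, with replicates pooled. The bait was an N-terminus-lacking mouse FoxP3 or FoxP1 fragment with a His6-MBP tag, expressed in E. coli and used at 0.4 µM with 0.1 µM Klenow-filled degenerate double-stranded DNA library for 30 min at room temperature in Tris pH 7.5 buffer with NaCl and MgCl2. Amylose resin pull-down with three washes was followed by proteinase K release, PCR barcoding and Illumina sequencing.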
On to “GATGATTGTTCTCCCAGCTGATGAATTGGGAGCGTCGAGTAAACAAATTTTCCTAATCTTTCTGTTCAAGCGCCATCTAC”, for which the binding signal is 0.9 RPM ratio (pull-down/input). For the sequence “GATGATTGTTCTCCCAGCTGATGAATTGTAATTGTCGAGTAAACAAATTTTCCTAATCTTTCTGTTCAAGCGCCATCTAC”, the binding signal was 1.39 RPM ratio (pull-down/input). Turning to “GATGATTGTTCTCCCAGCTGATGAATTCTGTCCGTCGAGTAAACAAATTTTCCTAATCTTTCTGTTCAAGCGCCATCTAC”, the binding signal was 0.824 RPM ratio (pull-down/input).

Consider “GATGATTGTTCTCCCAGCTGATGAATTTCATGCTTCGAGTAAACAAATTTTCCTAATCTTTCTGTTCAAGCGCCATCTAC”, for which the binding signal was 0.882 RPM ratio (pull-down/input).

With “GATGATTGTTCTCCCAGCTGATGAATTCAGACACTCGAGTAAACAAATTTTCCTAATCTTTCTGTTCAAGCGCCATCTAC”, the binding signal is 0.817 RPM ratio (pull-down/input). The result for “GATGATTGTTCTCCCAGCTGATGAATTGTTCCTCTCGAGTAAACAAATTTTCCTAATCTTTCTGTTCAAGCGCCATCTAC” reads 1.09 RPM ratio (pull-down/input); that for “GATGATTGTTCTCCCAGCTGATGAATTAGCCATCTCGAGTAAACAAATTTTCCTAATCTTTCTGTTCAAGCGCCATCTAC”, 0.909 RPM ratio (pull-down/input).

Consider “GATGATTGTTCTCCCAGCTGATGAATTCCAGTAATCGAGTAAACAAATTTTCCTAATCTTTCTGTTCAAGCGCCATCTAC”, for which the binding signal is 1.31 RPM ratio (pull-down/input).

“GATGATTGTTCTCCCAGCTGATGAATTTCATTCATCGAGTAAACAAATTTTCCTAATCTTTCTGTTCAAGCGCCATCTAC”: the binding signal was 0.872 RPM ratio (pull-down/input).

Turning to “GATGATTGTTCTCCCAGCTGATGAATTATCCGGTTCGAGTAAACAAATTTTCCTAATCTTTCTGTTCAAGCGCCATCTAC”, the binding signal is 0.926 RPM ratio (pull-down/input). In the case of “GATGATTGTTCTCCCAGCTGATGAATTTCCCTCCTCGAGTAAACAAATTTTCCTAATCTTTCTGTTCAAGCGCCATCTAC”, the binding signal is 0.8 RPM ratio (pull-down/input). The same measure for “GATGATTGTTCTCCCAGCTGATGAATTCAGCTCATCGAGTAAACAAATTTTCCTAATCTTTCTGTTCAAGCGCCATCTAC”: 0.865 RPM ratio (pull-down/input); for “GATGATTGTTCTCCCAGCTGATGAATTGCGAGCTTCGAGTAAACAAATTTTCCTAATCTTTCTGTTCAAGCGCCATCTAC”: 0.97 RPM ratio (pull-down/input); for “GATGATTGTTCTCCCAGCTGATGAATTTGAAAAGTCGAGTAAACAAATTTTCCTAATCTTTCTGTTCAAGCGCCATCTAC”: 0.847 RPM ratio (pull-down/input). The result for “GATGATTGTTCTCCCAGCTGATGAATTGTGGCTCTCGAGTAAACAAATTTTCCTAATCTTTCTGTTCAAGCGCCATCTAC” reads 0.98 RPM ratio (pull-down/input); that for “GATGATTGTTCTCCCAGCTGATGAATTATGGACGTCGAGTAAACAAATTTTCCTAATCTTTCTGTTCAAGCGCCATCTAC”, 0.907 RPM ratio (pull-down/input). With “GATGATTGTTCTCCCAGCTGATGAATTTTGAAGATCGAGTAAACAAATTTTCCTAATCTTTCTGTTCAAGCGCCATCTAC”, the binding signal was 0.933 RPM ratio (pull-down/input).

On to “GATGATTGTTCTCCCAGCTGATGAATTGTCGTGTTCGAGTAAACAAATTTTCCTAATCTTTCTGTTCAAGCGCCATCTAC”, for which the binding signal was 1.07 RPM ratio (pull-down/input). The same measure for “GATGATTGTTCTCCCAGCTGATGAATTGCGTCCGTCGAGTAAACAAATTTTCCTAATCTTTCTGTTCAAGCGCCATCTAC”: 1.04 RPM ratio (pull-down/input); for “GATGATTGTTCTCCCAGCTGATGAATTATGAAACTCGAGTAAACAAATTTTCCTAATCTTTCTGTTCAAGCGCCATCTAC”: 0.945 RPM ratio (pull-down/input).

Take “GATGATTGTTCTCCCAGCTGATGAATTTACTGGGTCGAGTAAACAAATTTTCCTAATCTTTCTGTTCAAGCGCCATCTAC”: the binding signal was 1.05 RPM ratio (pull-down/input).

For the sequence “GATGATTGTTCTCCCAGCTGATGAATTATTTCTGTCGAGTAAACAAATTTTCCTAATCTTTCTGTTCAAGCGCCATCTAC”, the binding signal was 1.11 RPM ratio (pull-down/input). The same measure for “GATGATTGTTCTCCCAGCTGATGAATTTTTCGGATCGAGTAAACAAATTTTCCTAATCTTTCTGTTCAAGCGCCATCTAC”: 0.904 RPM ratio (pull-down/input). The result for “GATGATTGTTCTCCCAGCTGATGAATTCGGCGAATCGAGTAAACAAATTTTCCTAATCTTTCTGTTCAAGCGCCATCTAC” reads 0.819 RPM ratio (pull-down/input); that for “GATGATTGTTCTCCCAGCTGATGAATTACAATAGTCGAGTAAACAAATTTTCCTAATCTTTCTGTTCAAGCGCCATCTAC”, 1.26 RPM ratio (pull-down/input). The result for “GATGATTGTTCTCCCAGCTGATGAATTACATAATTCGAGTAAACAAATTTTCCTAATCTTTCTGTTCAAGCGCCATCTAC” reads 1.43 RPM ratio (pull-down/input); that for “GATGATTGTTCTCCCAGCTGATGAATTAAACAAGTCGAGTAAACAAATTTTCCTAATCTTTCTGTTCAAGCGCCATCTAC”, 1.71 RPM ratio (pull-down/input). As for “GATGATTGTTCTCCCAGCTGATGAATTGCAATCGTCGAGTAAACAAATTTTCCTAATCTTTCTGTTCAAGCGCCATCTAC”, the binding signal was 1.24 RPM ratio (pull-down/input). As for “GATGATTGTTCTCCCAGCTGATGAATTGGAAACCTCGAGTAAACAAATTTTCCTAATCTTTCTGTTCAAGCGCCATCTAC”, the binding signal is 0.764 RPM ratio (pull-down/input). Regarding “GATGATTGTTCTCCCAGCTGATGAATTGTTGGCCTCGAGTAAACAAATTTTCCTAATCTTTCTGTTCAAGCGCCATCTAC”, the binding signal was 1.27 RPM ratio (pull-down/input). As to “GATGATTGTTCTCCCAGCTGATGAATTTTCCTCATCGAGTAAACAAATTTTCCTAATCTTTCTGTTCAAGCGCCATCTAC”, the binding signal was 0.905 RPM ratio (pull-down/input).

Consider “GATGATTGTTCTCCCAGCTGATGAATTATAAACATCGAGTAAACAAATTTTCCTAATCTTTCTGTTCAAGCGCCATCTAC”, for which the binding signal was 2.42 RPM ratio (pull-down/input).
